Assay results taken from PubChem BioAssay AID2528 (National Center for Advancing Translational Sciences (NCATS), 2010).
Where “and” joins values, the source holds several entries; their conditions need not be identical. Equal values may be shown once. Hit rate of the full screen: of about 350,000 compounds, about 700 (0.2%) were called active. Calls follow the shape of the dose curve; as a rule, active = well fitted inhibition curve with a large enough effect; inconclusive = small, poorly fitted or top-dose-only effect; inactive = flat fitted curve, though single readings scatter. The list shows a part of the results, in another mix than the full data. The source holds several records for some structures; these can differ, active in one and inactive in another.

The compounds below were run against RecQ-like DNA helicase BLM (Homo sapiens) (UniProt P54132) (assay: qHTS Assay for Inhibitors of Bloom's syndrome helicase (BLM)). Conditions: recombinant BLM DNA unwinding, fluorescence dequenching; series mostly up to 56.1 µM; activity change, negative = inhibition: at the top concentration.
Sequence of UniProt P54132 (P54132 whole entry, looked up): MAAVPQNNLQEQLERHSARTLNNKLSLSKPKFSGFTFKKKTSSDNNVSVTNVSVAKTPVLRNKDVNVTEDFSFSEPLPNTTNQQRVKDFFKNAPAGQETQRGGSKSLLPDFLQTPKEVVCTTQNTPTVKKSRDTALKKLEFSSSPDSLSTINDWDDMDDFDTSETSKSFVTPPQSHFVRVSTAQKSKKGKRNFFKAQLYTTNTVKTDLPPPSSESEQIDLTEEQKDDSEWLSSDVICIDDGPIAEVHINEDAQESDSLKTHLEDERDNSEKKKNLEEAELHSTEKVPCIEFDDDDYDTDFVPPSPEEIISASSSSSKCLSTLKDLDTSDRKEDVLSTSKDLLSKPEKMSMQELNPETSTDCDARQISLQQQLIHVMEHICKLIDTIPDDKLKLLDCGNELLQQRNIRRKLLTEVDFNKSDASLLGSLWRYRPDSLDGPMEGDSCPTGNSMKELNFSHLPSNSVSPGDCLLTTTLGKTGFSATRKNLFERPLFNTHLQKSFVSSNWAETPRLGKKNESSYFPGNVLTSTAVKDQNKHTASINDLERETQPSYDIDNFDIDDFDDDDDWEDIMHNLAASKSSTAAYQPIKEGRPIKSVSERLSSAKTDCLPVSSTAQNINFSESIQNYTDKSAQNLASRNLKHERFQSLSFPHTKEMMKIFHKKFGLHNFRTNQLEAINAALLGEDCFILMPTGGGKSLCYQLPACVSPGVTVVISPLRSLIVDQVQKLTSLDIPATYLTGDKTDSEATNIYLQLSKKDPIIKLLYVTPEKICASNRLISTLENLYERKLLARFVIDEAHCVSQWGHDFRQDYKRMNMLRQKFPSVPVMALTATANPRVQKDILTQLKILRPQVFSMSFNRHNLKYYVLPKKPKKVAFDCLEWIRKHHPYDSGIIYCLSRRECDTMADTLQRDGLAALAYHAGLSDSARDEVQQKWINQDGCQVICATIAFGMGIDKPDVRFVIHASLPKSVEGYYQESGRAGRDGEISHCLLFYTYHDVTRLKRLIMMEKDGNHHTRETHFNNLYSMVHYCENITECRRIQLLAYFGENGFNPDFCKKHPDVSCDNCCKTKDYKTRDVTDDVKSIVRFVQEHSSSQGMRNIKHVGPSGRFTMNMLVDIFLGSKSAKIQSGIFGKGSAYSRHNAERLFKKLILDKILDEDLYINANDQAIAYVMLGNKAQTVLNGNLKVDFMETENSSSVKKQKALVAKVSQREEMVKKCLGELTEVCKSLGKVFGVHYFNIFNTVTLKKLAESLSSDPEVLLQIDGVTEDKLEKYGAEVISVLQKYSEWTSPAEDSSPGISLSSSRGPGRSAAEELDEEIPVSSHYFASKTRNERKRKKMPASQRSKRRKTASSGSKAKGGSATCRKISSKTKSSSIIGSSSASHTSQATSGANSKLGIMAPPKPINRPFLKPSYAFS
Excerpt: Survival of cells and the faithful propagation of the genome depend on elaborate mechanisms of detecting and repairing DNA damage. Treatment of advanced cancer relies on radiation therapy or chemotherapy, which kill cancer cells by causing extensive DNA damage. It is often found, that cancer cells develop resistance to therapy through enhanced activity of DNA repair functions; this has led to an increased interest in developing drugs that interfere with DNA repair, which could sensitize cancer cells to conventional therapy.
This validation qHTS assay pertains to human BLM, which is important in resolving abnormal DNA structures formed during replication or homologous recombination. Shutting down the expression of BLM leads to chromosomal instability and higher radiation sensitivity in cultured cells.
The validation assay was a fluorescence quenching based kinetic qHTS for BLM Helicase DNA unwinding. The activity was measured as ATP-dependent separation of a 20-bp DNA duplex extended by 30-nt single-stranded tails (forked duplex). The forked DNA substrate was tagged with rhodamine fluorophore (carboxytetramethyl rhodamine, TAMRA) and BHQ-2 (Black Hole Quencher 2) dark quencher. Strand separation results in an increase in the fluorescence of TAMRA (excitation 525 nm, emission 598 nm). This substrate construct operates in a red-shifted region where very few compound library members have been noted to fluoresce (PubChem AIDs 593 and 594). An additional feature of the assay is the inclusion of 2.5 ug/ml poly (dIdC), to reduce interference by compounds such as DNA intercalators, a major source of false inhibitors.
Ian Hickson, University of Oxford
Opher Gileadi, Structural Genomics Consortium, University of Oxford
Screening Center PI: Austin, C.P.
Screening Center: NIH Chemical Genomics Center [NCGC]
Three uL of reaction buffer (25 mM Tris-HCl (pH 8.0), 5 mM NaCl, 2 mM MgCl2, 1mM DTT, 0.01% Tween- 20, and 2.5 ug/ml poly(dI-dC), including enzyme (50 nM BLM), were dispensed into a 1536-well Greiner black assay plate via solenoid-valve based nanoliter dispensers. Compounds (23 nl each in columns 5-48) and control (23 nl each in column 2 as dose-response) were transferred via a Kalypsys pintool equipped with a 1536-pin array. The plates were incubated for 15 min at room temperature, and then 1 ul of substrates (200 nM DNA and 2 mM ATP, final concentrations) was added to start the reaction. The plate was transferred into a ViewLux high-throughput CCD imager where the reaction progress was measured in a discontinuous kinetic mode (two reads spaced 2 hours apart, with intermediate room temperature incubation of the covered assay plate) by using standard red-fluorescence optics (excitation filter 525 nm, emission filter 598 nm). Enzyme-free and vehicle (DMSO) controls were included for signal normalization.
Also: nearly all actives have a fitted effect of over 35% in size.
Potency is read from the fitted curve at half-maximal effect.

Activity change, negative = inhibition, inactive:
CC(C)(C)c1ccc(S(=O)(=O)/C=C\C#N)cc1 -5.57%
CN(C)[C@@H]1C(=O)C(C(N)=O)=C(O)[C@]2(O)C(=O)C3=C(O)c4c(O)ccc(Cl)c4[C@H](O)[C@H]3C[C@@H]12 -1.58%
CCCCCCCCCCCCCCC[C@H](O)[C@@H](N)CO -16.7%
Cn1c(=O)[nH]c2ncn(C)c2c1=O 1.4%
COc1cc(NCc2ccc3nc(N)nc(N)c3c2C)cc(OC)c1OC -24.8%
Cc1ccc(S(=O)(=O)N[C@@H](Cc2ccccc2)C(=O)CCl)cc1 -10.1%
CC12CCC3c4ccc(O)cc4CCC3C1CCC2=O (stereo not given) -3.91%
CC(=O)N[C@@H](Cc1c[nH]c2ccccc12)C(=O)OCc1cc(C(F)(F)F)cc(C(F)(F)F)c1 -16.3%
NC/C=C/C(=O)O 5.7%
CC1=C(CC(=O)O)c2cc(F)ccc2/C1=C/c1ccc(S(C)=O)cc1 (stereo not given) -3.92%
COC(=O)C1C(O)CCC2CN3CCc4c([nH]c5ccccc45)C3CC21 (stereo not given) -1.42%
Cn1c(=O)c2[nH]c(-c3ccccc3)nc2n(C)c1=O -1.04%

Potency, inactive:
C[C@](N)(Cc1ccc(O)c(O)c1)C(=O)O
CCCn1c(=O)[nH]c(=O)c2[nH]cnc21
CN/C(=C\[N+](=O)[O-])NCCSCc1ccc(CN(C)C)o1
NC1CCN(c2cccc(Cl)n2)CC1
CC(C)NCC(O)COc1ccc(CCOCC2CC2)cc1 (stereo not given)
N[C@@H](CO)C(=O)O
NS(=O)(=O)c1cc2c(cc1Cl)NC=NS2(=O)=O
NC(N)=NC(=O)Cc1c(Cl)cccc1Cl

Potency, active:
COC(=O)c1cc(O)cc(OC)c1Oc1cc(C)cc(O)c1C(=O)O 8.91 µM
CN(CCC#N)C(=O)COC(=O)c1c2c(nc3ccccc13)/C(=C/c1ccco1)CC2 14.1 µM
COc1cc(/C=C/C(=O)Nc2nc3ccc(S(=O)(=O)N(C)C)cc3s2)cc(OC)c1OC 5.01 µM
Cc1ccc2c(c1C)NC(C(=O)O)C1CC=CC21 (stereo not given) 17.8 µM
COc1ccc(C)cc1Nc1nc(N)c2cc(OC)c(OC)cc2n1 20 µM
O=C(NCc1ccco1)c1cccn2c(=O)c3cc4ccccc4cc3nc12 20 µM
O=C(N/N=C1/C(=O)c2cccc3cccc1c23)c1ccc(Cl)cc1 10 µM
CNC1=C(Cl)C(=O)c2ccncc2C1=O 17.8 µM
COc1ccc(-c2nc3c(c(SCC(=O)Nc4ccc(C(=O)O)cc4)n2)Cc2ccccc2O3)cc1 7.08 µM

Potency, inactive and 10 µM (active):
O=c1oc2ccccc2c2oc3cc(O)c(O)cc3c12
